# Experimental data reported in PubChem BioAssay AID1347165 (National Center for Advancing Translational Sciences (NCATS), 2019).
# The campaign covered roughly 220,000 compounds. About 5,700 (2.6%) were called active. This list was built around the results that the source calls inconclusive (neither active nor inactive); the mix of calls is not that of the screen. Calls follow the shape of the dose curve; as a rule, active = well fitted inhibition curve with a large enough effect; inconclusive = small, poorly fitted or top-dose-only effect; inactive = no such curve, though single readings can be large or run the other way. Where the call is inconclusive, the potency comes from a doubtful curve fit.
# Molecular target: Lysine-specific demethylase 5B (Homo sapiens) (UniProt Q9UGL1)
# Assay: Primary screen for KDM5B Histone Demethylases FDH-coupled qHTS; also: nearly all actives have a fitted effect of over 70% in size
# Details: FDH-coupled NADH fluorescence (FDH is formaldehyde dehydrogenase); series mostly up to 57.7 µM
# In short: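 Inhibition is measured as reduced NADH fluorescence generation from FDH coupling to formaldehyde release. Truncated KDM5BΔAP at 200 nM final acts on H3K4me3 peptide (12.5 µM in substrate mix) in pH 7.5 HEPES buffer with Tween-20, 30 min, room temperature.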
# Potency is read from the fitted curve at half-maximal effect; tags tell the direction and shape of the fitted curve.
# UniProt Q9UGL1, sequence (Q9UGL1 whole entry, looked up): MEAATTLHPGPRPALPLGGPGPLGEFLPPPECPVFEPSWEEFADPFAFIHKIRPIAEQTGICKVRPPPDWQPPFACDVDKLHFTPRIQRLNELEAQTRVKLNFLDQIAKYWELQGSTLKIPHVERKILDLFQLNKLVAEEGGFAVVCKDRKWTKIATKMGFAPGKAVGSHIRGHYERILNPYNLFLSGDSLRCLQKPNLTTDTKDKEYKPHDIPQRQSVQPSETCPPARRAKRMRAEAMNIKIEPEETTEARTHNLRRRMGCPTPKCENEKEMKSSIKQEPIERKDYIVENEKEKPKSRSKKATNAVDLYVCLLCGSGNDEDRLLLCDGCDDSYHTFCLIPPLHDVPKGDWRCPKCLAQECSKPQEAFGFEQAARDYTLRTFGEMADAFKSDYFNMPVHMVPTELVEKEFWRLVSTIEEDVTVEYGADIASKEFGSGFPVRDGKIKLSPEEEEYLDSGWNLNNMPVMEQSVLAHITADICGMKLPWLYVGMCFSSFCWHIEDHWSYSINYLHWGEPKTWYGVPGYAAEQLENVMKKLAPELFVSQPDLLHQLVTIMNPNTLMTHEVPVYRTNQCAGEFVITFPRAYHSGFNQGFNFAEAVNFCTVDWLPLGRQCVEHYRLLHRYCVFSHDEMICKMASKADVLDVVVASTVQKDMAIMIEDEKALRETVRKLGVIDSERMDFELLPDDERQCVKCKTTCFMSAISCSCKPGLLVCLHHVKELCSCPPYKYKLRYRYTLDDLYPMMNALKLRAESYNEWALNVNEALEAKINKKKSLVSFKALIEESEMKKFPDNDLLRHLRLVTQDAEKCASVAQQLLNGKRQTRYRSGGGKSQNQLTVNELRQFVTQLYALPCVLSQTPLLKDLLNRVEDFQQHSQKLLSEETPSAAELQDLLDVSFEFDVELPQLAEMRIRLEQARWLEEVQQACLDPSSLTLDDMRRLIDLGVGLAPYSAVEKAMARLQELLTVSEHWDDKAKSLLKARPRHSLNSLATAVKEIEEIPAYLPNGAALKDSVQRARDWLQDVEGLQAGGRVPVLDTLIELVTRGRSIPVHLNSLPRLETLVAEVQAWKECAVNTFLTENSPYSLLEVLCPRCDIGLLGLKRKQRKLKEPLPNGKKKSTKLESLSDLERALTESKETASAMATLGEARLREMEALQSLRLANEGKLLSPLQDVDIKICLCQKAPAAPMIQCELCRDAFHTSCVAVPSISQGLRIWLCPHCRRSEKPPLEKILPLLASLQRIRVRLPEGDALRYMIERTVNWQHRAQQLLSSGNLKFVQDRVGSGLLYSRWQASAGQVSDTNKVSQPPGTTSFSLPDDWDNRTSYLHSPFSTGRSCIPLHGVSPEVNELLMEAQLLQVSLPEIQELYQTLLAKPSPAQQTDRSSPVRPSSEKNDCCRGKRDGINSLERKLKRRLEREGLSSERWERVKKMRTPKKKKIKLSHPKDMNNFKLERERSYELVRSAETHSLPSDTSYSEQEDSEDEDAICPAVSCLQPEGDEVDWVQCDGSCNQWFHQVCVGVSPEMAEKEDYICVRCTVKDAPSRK
row,Compound,Potency
1,O=c1[nH]c(=O)n(Cc2ccco2)c2nccc(-c3ccc4c(c3)OCO4)c12,"inconclusive: 44.7 µM [inhibitor, partial curve, poor fit]"
2,CC(C(=O)NC(=O)NC12CC3CC(CC(C3)C1)C2)n1cnc2c1c(=O)n(C)c(=O)n2C (stereo not drawn),inactive
3,Cc1cccc(CNC(=O)c2cc3c(N(C)Cc4ccccc4)nc(C)cn3n2)c1,active: 25.1 µM
4,O=C(CCCc1c[nH]c2ccccc12)N1CCc2nc3cc(-c4ccccc4)[nH]n3c(=O)c2C1,"inconclusive: 17.8 µM [inhibitor, partial curve, poor fit]"
5,COc1cc(NC(=O)c2ccc(-n3cnc4cccnc43)cc2)cc(OC)c1,"inconclusive: 17.8 µM [inhibitor, partial curve, poor fit]"
6,CC(C)c1ccc(Nc2c(-c3ccco3)nc3ccccn23)cc1,"inconclusive: 31.6 µM [inhibitor, partial curve, poor fit]"
7,COc1ccc(/C=C/C(=O)Nc2ccc3nc(N4CCCCC4)cc(C)c3c2)cc1OC,"inconclusive: 17.8 µM [inhibitor, single point]"
8,CCOc1ccc2c(c1)cc(C(=O)NCCOC)n2C,"inconclusive: 31.6 µM [inhibitor, partial curve, poor fit]"
9,CN(C)C(Cc1ccccc1)C(=O)c1cc2ccccc2o1 (stereo not drawn),"inconclusive: 8.91 µM [inhibitor, partial curve, poor fit]"
10,COc1ccc(C(=O)NC(=S)NNC(=O)c2c(-c3ccccc3)noc2C)cc1OC,"inconclusive: 31.6 µM [inhibitor, single point]"
11,CC(C)n1ncc2cc(NC(=O)CCc3ncc(-c4ccccc4F)o3)cnc21,inactive
12,Cc1ccc(Nc2c(-c3ccccn3)nc3ccc(C)cn23)cc1,"inconclusive: 39.8 µM [inhibitor, partial curve, poor fit]"
13,Cc1cc(C(=O)N(CCC(=O)NCCC(C)C)CCC(C)C)c(C)o1,"inconclusive: 28.2 µM [inhibitor, single point]"
14,Cc1cc(NC(=O)c2ccc([N+](=O)[O-])o2)cc(-c2nc3cc(C(C)C)ccc3o2)c1O,inactive
15,COc1ccc(-c2ccc3ncc(Nc4cccc(O)c4)n3n2)cc1OC,inactive
16,COc1ccc(-n2nc(C)c([C@@H]3C=C[C@@H](NCc4cccc(Cl)c4)C3)c2C)cc1,"inconclusive: 28.2 µM [inhibitor, partial curve, poor fit]"
17,COc1cccc(C(=O)Nc2ccc(NS(=O)(=O)c3ccc4c(c3)OCCCO4)cc2)c1,inactive
18,CS(=O)(=O)NCCc1ccc(C(=O)COc2ccccc2Br)s1,inactive
